The text below walks through data of US20250243282A1.

Assay [1] addresses Recombinant human Gal3 (rhGal3) (TrueBinding, #QC200361) (human) (UniProt P17931). The experiment in a line: cell-based or functional assay.
Assay [2] concerns the target human Gal3 protein (recombinant human Galectin-3) (human) (UniProt P17931). In words: cell-based or functional assay.

B1: F847C.26F5 (antibody)
heavy: QIQLVQSGPEVKKPGETVKISCKASGYIFTNYGMNWVKQAPGKGLKWMGWINTYTGEPTYTDDFKGRFAFSLETSASTAYLQINNLKNEDTATYFCAKFGNYVGAMDYWGQGTSVTVSSASTKGPSVFPLAPCSRSTSESTAALGCLVKDYFPEPVTVSWNSGALTSGVHTFPAVLQSSGLYSLSSVVTVPSSSLGTKTYTCNVDHKPSNTKVDKRV[human IgG4 Fc with S228P (EU numbers) not given here]
light: EIKMNQSPSSLSASLGDTITITCHASQNINVWLSWYQQKPGNIPKLLIYKASNLHTGVPSRFSGSGSGTGFTLTISSLQPEDIATYYCQQGQSYPYTFGGGTKLELKRTVAAPSVFIFPPSDEQLKSGTASVVCLLNNFYPREAKVQWKVDNALQSGNSQESVTEQDSKDSTYSLSSTLTLSKADYEKHKVYACEVTHQGLSSPVTKSFNRGEC
Take B1: in assay [1], the % inhibition of CD62L shedding worked out at 69.7%, the % inhibition of IL-6 secretion was 5.8% and the % inhibition of TNFα secretion is -64.7%.

B2: F847C.10B9 (antibody)
heavy: QIQLVQSGPEVKKPGETVKISCKASGYIFTNYGMNWVKQAPGKGLKWMGWINTYTGEPTYTDDFKGRFAFSLETSASTAYLQINNLKNEDTATYFCAKFGNYVGAMDYWGQGTSVTVSSASTKGPSVFPLAPCSRSTSESTAALGCLVKDYFPEPVTVSWNSGALTSGVHTFPAVLQSSGLYSLSSVVTVPSSSLGTKTYTCNVDHKPSNTKVDKRV[human IgG4 Fc with S228P (EU numbers) not given here]
light: DIRMTQSPSSLSASLGDTITITCHASQNINVWLSWYQQKPGNIPKLLIYKASNLHTGVPSRFSGSGSGTGFTLTISSLQPEDIATYYCQQGQSYPYTFGGGTKLELKRTVAAPSVFIFPPSDEQLKSGTASVVCLLNNFYPREAKVQWKVDNALQSGNSQESVTEQDSKDSTYSLSSTLTLSKADYEKHKVYACEVTHQGLSSPVTKSFNRGEC
Take B2: in assay [1], the % inhibition of CD62L shedding came to 82.2%, the % inhibition of IL-6 secretion is -17.7% and the % inhibition of TNFα secretion was 22.6%. Further, in assay [2], the % inhibition of IL-6 secretion (neutrophils) is -17.7% and the % inhibition of TNFα secretion (neutrophils) amounted to 22.6%.
